Measured values as given in the supplement of paper PMC10126150.
Values marked as one replicate rest on one cluster of the flow cell; about a third of the high ones do not repeat.

Tested on: ATP
Assay: switch fluorescence ratio, 500 uM ATP over buffer (Cy3 cluster intensity, sum of 5 cycles each) (fold (ratio)); higher = stronger signal-on switching upon ATP binding; sequences stand for … in TCGTCGGCAGCGTCAGATGTGTATAAGAGACAGTTTTTTTTTTTTTTTTTTTTTTTTT…TC
Details: aptamer strand: ATP DNA aptamer (quencher-CACCTGGGGGAGTATTGCGGAGGAAGG + anchor), 100 nM annealed; ATP concentration: 500 uM; one replicate
Procedure, shortened: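 Clusters carrying Cy3-labelled switching strands on a modified Illumina MiSeq flow-cell were annealed to 100 nM quencher-labelled ATP aptamer and imaged in selection buffer. They were imaged again after 15 min with 500 uM ATP at 22 °C, over five buffer/ATP cycles with NaOH stripping and re-annealing in between. For each cluster, the fluorescence ratio is the summed Cy3 intensity of the target cycles divided by that of the buffer cycles, averaged per switch-domain sequence. Clusters outside 100-1000 RFU were left out.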
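Note: ATP exposure 15 min at 22 °C before imaging.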

Row | Sequence | switch fluorescence ratio
1 | TCCTGTGTGA | 1.06
2 | CTCGGGCTTT | 1
3 | GAGATTATTG | 0.993
4 | TTGGGACGGC | 0.987
5 | GGCGTGAAGT | 0.965
6 | TAACTGCCG | 1.09
7 | GGTTGAGCCA | 0.998
8 | TACAAGGCGG | 1.03
9 | ATTCCCCTAT | 1.01
10 | AGTCATGGGT | 1.02
11 | TATCCCTAGA | 0.985
12 | CATTACTAAA | 1.02
13 | TTGAATTGCA | 0.998
14 | AAGTGCGCCG | 1.06
15 | TTATGAACTA | 0.994
16 | AGCAGGGGTC | 1.06
17 | GAGGTCAGCA | 1.01
18 | ATGCTGTCGT | 1.02
19 | CATTACTCGC | 1.35
20 | GGTTAGTTAT | 0.998
21 | GATATCGAGG | 0.993
22 | AGTTATGCTC | 1.09
23 | ATTATATCTC | 1.02
24 | TAGGGTAGGC | 0.985
25 | GTCAATAGGT | 1
26 | TTCCTCGATT | 1.05

Row | Sequence | switch fluorescence ratio
27 | GGAATGAGTT | 0.994
28 | ATGAATCAC | 0.972
29 | ACTGTTCGC | 1.09
30 | GTTGTAGTGG | 1
31 | CTGGTTGGCG | 0.94
32 | CTAGACAAGC | 0.992
33 | TAGCTGATTC | 0.985
34 | TATCGAAAGG | 1.42
35 | ATATCTAGAG | 0.951
36 | TTGTACTTCT | 1.01
37 | AAAGCCTATA | 0.972
38 | TGAGTAAAAT | 1
39 | TGCGTTGAG | 0.989
40 | ACGGGAGCAG | 1.06
41 | ATTTGTGCCA | 0.977
42 | TTCATCGGTC | 0.992
43 | CCTTGGTTAT | 1.08
44 | ATAGCAGTTG | 0.989
45 | TAATTGTACG | 1.01
46 | CGGCAAAGAT | 1.05
47 | ATCTAATGGT | 0.969
48 | GACAATTGTT | 1.04
49 | GCGTGACGCG | 1.01
50 | TATATGGTCT | 0.99
51 | AATAACTCTT | 1.03
52 | CGGGTCGGA | 0.984

Row | Sequence | switch fluorescence ratio
53 | GTTGCCTGAC | 1.36
54 | TTATGGGCAC | 1.08
55 | CTATAACGG | 1.02
56 | GATCACCCAT | 1.01
57 | TGCTACTGTA | 1.11
58 | GTTCTTCGGT | 0.982
59 | TCTCCCCGCT | 1.95
60 | CTGTTTAAAG | 0.971
61 | ATTAATCGGG | 1.98
62 | TTATAACGAC | 1.09
63 | GGAGTAGTTA | 0.983
64 | TAAATTCCAA | 0.995
65 | GGACAAAGGG | 0.97
66 | GTTACGAC | 1.19
67 | AGTACTGGTT | 1.02
68 | CGAGAGGTAG | 0.967
69 | AATCTCCGTG | 1.09
70 | CCAAGGATTT | 0.981
71 | AACTTTGCTT | 0.984
72 | ATCAATAGCT | 0.982
73 | AATGCACGCG | 0.967
74 | ATAAAGTTTA | 0.998
75 | TGGTCGCGGG | 1
76 | TTCCTCGGAA | 2.38
77 | TCTCGTTTTC | 0.965
78 | GGGGGTCTAA | 0.991

Row | Sequence | switch fluorescence ratio
79 | GACATTTAAC | 1.04
80 | ATCATGCGG | 1
81 | AGCGAAAGGC | 1.04
82 | GGCCTGGGTG | 2.22
83 | AGACGCCCTC | 1.12
84 | TTCTCTACCA | 1.03
85 | ACAAGATTGT | 1.03
86 | AAGCATGTAC | 4.01
87 | TCCACTATAT | 1.15
88 | TATTGCCTAG | 0.957
89 | GGCAGTTTCG | 0.976
90 | GTGCCCTTCT | 1.01
91 | GGTATGCCGT | 0.908
92 | GTGAGAAATT | 0.97
93 | AAGGTCGTTA | 0.992
94 | ACCTCAAATT | 1.04
95 | TTTCCATGTA | 1.04
96 | CGTGGTTTAA | 1.01
97 | GCCGCAGCGT | 1.3
98 | AGTCTTGGT | 1.09
99 | GATTCGCCCT | 1.04
100 | CAGACGGGCC | 1.03
101 | ACGATAAGCA | 1.05
102 | TGGGTCAGAT | 0.971
103 | TAAGAGTAA | 0.973
104 | GCGCAAGTT | 1.06

Row | Sequence | switch fluorescence ratio
105 | TTGTCTAGAC | 1.07
106 | CATCGCGCCT | 1.11
107 | AGCGCCACGG | 1.03
108 | TCCTTTTGCG | 0.921
109 | CCGGTAGTTT | 1.04
110 | AAAGAGCTTC | 0.896
111 | CACGGTGAGG | 0.995
112 | GAGAGCTGGT | 0.999
113 | CGTGTCACGT | 0.988
114 | GTTGTTTACT | 1.02
115 | GGCGTTTGCA | 0.971
116 | CCTAACCTTT | 1.04
117 | TCTTCGTATA | 1.28
118 | TAGAATCGAG | 1.12
119 | GAACAAGCCC | 1.01
120 | TTCTTATTAC | 1.29
121 | AATATGGTGA | 0.997
122 | AGGGTTTTTC | 1.05
123 | TCGCGGAGAG | 1.02
124 | GACGCTTAGG | 1.05
125 | ATCATATATT | 0.999
126 | GGATCGCTGT | 1.04
127 | TGTAACCAAG | 0.996
128 | GCGTTTTTAA | 0.962
129 | AATTGCTTTT | 1
130 | GTCACCCAAG | 1.08

Row | Sequence | switch fluorescence ratio
131 | TAGGGGACAC | 0.952
132 | TTCAACCGGC | 1.06
133 | CTGTCGAAAA | 1
134 | AGTTGGGACA | 1.02
135 | TTACAGCCAA | 1.02
136 | TACAGTGAGT | 0.99
137 | TCTGCCGATG | 1
138 | CTTCGATGGC | 1.1
139 | GCTCGCGCTT | 1.24
140 | TCCATCTTAG | 1.02
141 | CACGGCACA | 1.32
142 | ATTGAGCCGC | 1.03
143 | TGCACGCTTA | 1.03
144 | CTCGAGCCAA | 1.33
145 | GACCGGACAA | 1.45
146 | CGATAATACA | 1.03
147 | GTTGTATACC | 0.971
148 | CCGGTGGCTA | 1.61
149 | GATGAGAAGG | 1.01
150 | GAGCCGGTTA | 0.968
151 | TTTTATATTG | 0.995
152 | GGTGACACAC | 1.13
153 | AAGCCTATAC | 4.48
154 | CAATTGCTGC | 0.934
155 | TGGTAAATAG | 0.975
156 | GAATATCCAG | 0.967

Row | Sequence | switch fluorescence ratio
157 | TATCTTAGTG | 0.984
158 | TTACCCGTTT | 1.02
159 | TCTCTCAGGG | 1.07
160 | AATTAGGGT | 0.963
161 | CGTATAAGAA | 1.01
162 | TTCCTCCATC | 1.35
163 | GTTACATTGG | 1.01
164 | CAATTTGACT | 1.03
165 | GACGGTCGG | 1.01
166 | CTGGTTAGAT | 1.02
167 | CCTATGGTCT | 1.03
168 | AAAACGTGTG | 1.08
169 | AGAGCAGCTC | 1
170 | TTTATGGGGC | 0.97
171 | GGCCTATGGA | 1.03
172 | CAGGTTCAGC | 0.967
173 | TTGCGCAAC | 1.01
174 | CCGGCCGTTT | 0.993
175 | CATCTATAAA | 1.01
176 | TCCAGCGTCC | 1.14
177 | GCTGGTAGTG | 0.989
178 | GTTTATGTCA | 0.992
179 | TGCGATGGCT | 1.06
180 | AGATTCCTTA | 0.998
181 | GGTAACAGGA | 0.99
182 | ATTTTACCGC | 0.987

Row | Sequence | switch fluorescence ratio
183 | ATTACTTCTA | 1.05
184 | TATGTAAGCC | 0.969
185 | TCGATCCGG | 0.974
186 | CAAAGTCCG | 1.15
187 | TCTGATATCC | 1.02
188 | TGGAGGCTAC | 5.54
189 | CATTATGTCC | 1.01
190 | AGCCAGTTA | 0.955
191 | ATGCTTTATG | 1.01
192 | AGCACTGGCC | 1.04
193 | TTCGGCTATA | 1.02
194 | TAGAGCAGA | 1.03
195 | CTAAGCCCAT | 1.17
196 | TATCAGGGAC | 1.02
197 | TTATCTTTGA | 1.03
198 | CGATACGTTA | 1.1
199 | TATGTGATAA | 0.986
200 | GCTCGATCGC | 1.09
201 | CATACCAGTT | 1.01
